# Reference: the supplement of paper PMC8728848
# The list shows a part of the results.
# B1: PpFlo3 (Pichia pastoris) (protein)
# chain: MGSSHHHHHHSSGLVPRGSHMQESGNGTTSDTAYACDIGATPFDGFNATIYQYQASDDNSIQDPVFMSTGYLQRNQLHSTTGVTNPGFNIFTAGVATTTLYGIPNVNYQNMLLELKGYFRADASGNYGLSLRNIDDSAILFFGRETAFECCNENLIPLDEAPTDYSLFTIKEGEASTNPDSYTYTQYLEAGRYYPVRTFFANIRTRAVFNFTMTLPDGSELTDFQNYIFQFGALNQ
# What was measured:
# Assay in all cases: glycan array binding signal (z-score within array); higher = stronger binding
# Details in all cases: glycan notation: IUPAC condensed, linker removed
# [1] = target: Gal3S(b1-3)[Fuc(a1-4)]GlcNAc
# How it was run: (§1)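 Arrays were curated from the Consortium for Functional Glycomics database, 3228 in total, and kept only where the protein sequence was available. Binding is expressed as a within-array Z-score. This score was averaged across arrays of the same protein sequence at different concentrations or buffers and across linkers, and negative values can be read as non-binding.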
# Gal3S(b1-4)Glc = target: Gal3S(b1-4)Glc
# How it was run: as §1
# Gal3S(b1-4)Glc6S = target: Gal3S(b1-4)Glc6S
# How it was run: as §1
# Gal3S(b1-4)GlcNAc = target: Gal3S(b1-4)GlcNAc
# How it was run: as §1
# Gal3S(b1-4)GlcNAc6S = target: Gal3S(b1-4)GlcNAc6S
# How it was run: as §1
# [2] = target: Gal3S(b1-4)[Fuc(a1-3)]Glc
# How it was run: as §1
# [3] = target: Gal3S(b1-4)[Fuc(a1-3)]Glc6S
# How it was run: as §1
# Gal3S4S(b1-4)GlcNAc = target: Gal3S4S(b1-4)GlcNAc
# How it was run: as §1
# Gal3S6S(b1-4)GlcNAc = target: Gal3S6S(b1-4)GlcNAc
# How it was run: as §1
# Gal3S6S(b1-4)GlcNAc6S = target: Gal3S6S(b1-4)GlcNAc6S
# How it was run: as §1
# Gal4S(b1-4)GlcNAc = target: Gal4S(b1-4)GlcNAc
# How it was run: as §1
# Gal4S6S(b1-4)GlcNAc = target: Gal4S6S(b1-4)GlcNAc
# How it was run: as §1
# Gal6S(b1-3)GlcNAc = target: Gal6S(b1-3)GlcNAc
# How it was run: as §1
# Gal6S(b1-3)GlcNAc6S = target: Gal6S(b1-3)GlcNAc6S
# How it was run: as §1
# Gal6S(b1-4)Glc = target: Gal6S(b1-4)Glc
# How it was run: as §1
# Gal6S(b1-4)Glc6S = target: Gal6S(b1-4)Glc6S
# How it was run: as §1
# Gal6S(b1-4)GlcNAc = target: Gal6S(b1-4)GlcNAc
# How it was run: as §1
# Gal6S(b1-4)GlcNAc6S = target: Gal6S(b1-4)GlcNAc6S
# How it was run: as §1
# GalNAc(a1-3)Gal = target: GalNAc(a1-3)Gal
# How it was run: as §1
# GalNAc(a1-3)GalNAc = target: GalNAc(a1-3)GalNAc
# How it was run: as §1
# [4] = target: GalNAc(a1-3)GalNAc(a1-3)Gal(a1-4)Gal(b1-4)GlcNAc
# How it was run: as §1
# [5] = target: GalNAc(a1-3)GalNAc(b1-3)Gal(a1-4)Gal(b1-4)Glc
# How it was run: as §1
# GalNAc(b1-3)Gal = target: GalNAc(b1-3)Gal
# How it was run: as §1
# [6] = target: GalNAc(b1-3)Gal(a1-4)Gal(b1-4)GlcNAc
# How it was run: as §1
# [7] = target: GalNAc(b1-3)Gal(a1-4)Gal(b1-4)GlcNAc(b1-3)Gal(b1-4)Glc
# How it was run: as §1
# [8] = target: GalNAc(b1-3)Gal(a1-6)Gal(b1-4)Glc
# How it was run: as §1
# GalNAc(b1-3)GalNAc = target: GalNAc(b1-3)GalNAc
# How it was run: as §1
# GalNAc(b1-4)Gal(b1-4)Glc = target: GalNAc(b1-4)Gal(b1-4)Glc
# How it was run: as §1
# GalNAc(b1-4)GlcNAc = target: GalNAc(b1-4)GlcNAc
# How it was run: as §1
# [9] = target: GalNAc(b1-4)GlcNAc(b1-2)Man(a1-3)[GalNAc(b1-4)GlcNAc(b1-2)Man(a1-6)]Man(b1-4)GlcNAc(b1-4)GlcNAc
# How it was run: as §1
# GalNAc(b1-6)GalNAc = target: GalNAc(b1-6)GalNAc
# How it was run: as §1
# Glc(a1-4)Glc = target: Glc(a1-4)Glc
# How it was run: as §1
# [10] = target: Glc(a1-4)Glc(a1-4)Glc(a1-4)Glc
# How it was run: as §1
# Glc(a1-6)Glc(a1-6)Glc = target: Glc(a1-6)Glc(a1-6)Glc
# How it was run: as §1
# [11] = target: Glc(a1-6)Glc(a1-6)Glc(a1-6)Glc
# How it was run: as §1
# Glc(b1-4)Glc = target: Glc(b1-4)Glc
# How it was run: as §1
# Glc(b1-6)Glc = target: Glc(b1-6)Glc
# How it was run: as §1
# GlcA(b1-3)Gal = target: GlcA(b1-3)Gal
# How it was run: as §1
# GlcA(b1-3)GlcNAc = target: GlcA(b1-3)GlcNAc
# How it was run: as §1
# GlcA(b1-6)Gal = target: GlcA(b1-6)Gal
# How it was run: as §1
# [12] = target: GlcNAc(a1-3)Gal(b1-4)GlcNAc
# How it was run: as §1
# [13] = target: GlcNAc(a1-4)Gal(b1-3)GlcNAc
# How it was run: as §1
# [14] = target: GlcNAc(a1-4)Gal(b1-4)GalNAc
# How it was run: as §1
# [15] = target: GlcNAc(a1-4)Gal(b1-4)GlcNAc
# How it was run: as §1
# [16] = target: GlcNAc(a1-4)Gal(b1-4)GlcNAc(b1-3)Gal(b1-4)Glc
# How it was run: as §1
binder,measurement,setting,value
B1,glycan array binding signal (z-score),[1],5.08
same,glycan array binding signal (z-score),Gal3S(b1-4)Glc,-0.288
same,glycan array binding signal (z-score),Gal3S(b1-4)Glc6S,-0.198
same,glycan array binding signal (z-score),Gal3S(b1-4)GlcNAc,-0.285
same,glycan array binding signal (z-score),Gal3S(b1-4)GlcNAc6S,-0.263
same,glycan array binding signal (z-score),[2],-0.287
same,glycan array binding signal (z-score),[3],-0.25
same,glycan array binding signal (z-score),Gal3S4S(b1-4)GlcNAc,1.18
same,glycan array binding signal (z-score),Gal3S6S(b1-4)GlcNAc,-0.27
same,glycan array binding signal (z-score),Gal3S6S(b1-4)GlcNAc6S,-0.269
same,glycan array binding signal (z-score),Gal4S(b1-4)GlcNAc,-0.223
same,glycan array binding signal (z-score),Gal4S6S(b1-4)GlcNAc,-0.279
same,glycan array binding signal (z-score),Gal6S(b1-3)GlcNAc,-0.289
same,glycan array binding signal (z-score),Gal6S(b1-3)GlcNAc6S,-0.284
same,glycan array binding signal (z-score),Gal6S(b1-4)Glc,-0.224
same,glycan array binding signal (z-score),Gal6S(b1-4)Glc6S,-0.258
same,glycan array binding signal (z-score),Gal6S(b1-4)GlcNAc,-0.262
same,glycan array binding signal (z-score),Gal6S(b1-4)GlcNAc6S,-0.234
same,glycan array binding signal (z-score),GalNAc(a1-3)Gal,-0.274
same,glycan array binding signal (z-score),GalNAc(a1-3)GalNAc,-0.277
same,glycan array binding signal (z-score),[4],-0.284
same,glycan array binding signal (z-score),[5],-0.274
same,glycan array binding signal (z-score),GalNAc(b1-3)Gal,-0.242
same,glycan array binding signal (z-score),[6],-0.188
same,glycan array binding signal (z-score),[7],-0.237
same,glycan array binding signal (z-score),[8],-0.259
same,glycan array binding signal (z-score),GalNAc(b1-3)GalNAc,5.1
same,glycan array binding signal (z-score),GalNAc(b1-4)Gal(b1-4)Glc,-0.272
same,glycan array binding signal (z-score),GalNAc(b1-4)GlcNAc,-0.114
same,glycan array binding signal (z-score),[9],-0.184
same,glycan array binding signal (z-score),GalNAc(b1-6)GalNAc,-0.288
same,glycan array binding signal (z-score),Glc(a1-4)Glc,-0.268
same,glycan array binding signal (z-score),[10],-0.242
same,glycan array binding signal (z-score),Glc(a1-6)Glc(a1-6)Glc,-0.284
same,glycan array binding signal (z-score),[11],-0.292
same,glycan array binding signal (z-score),Glc(b1-4)Glc,-0.246
same,glycan array binding signal (z-score),Glc(b1-6)Glc,-0.279
same,glycan array binding signal (z-score),GlcA(b1-3)Gal,-0.246
same,glycan array binding signal (z-score),GlcA(b1-3)GlcNAc,-0.282
same,glycan array binding signal (z-score),GlcA(b1-6)Gal,-0.288
same,glycan array binding signal (z-score),[12],-0.288
same,glycan array binding signal (z-score),[13],-0.302
same,glycan array binding signal (z-score),[14],-0.243
same,glycan array binding signal (z-score),[15],-0.268
same,glycan array binding signal (z-score),[16],-0.243
